# Data: publication PMC4336329 (PLoS ONE, 2015)
# About 2,200 (0.71%) of roughly 310,000 compounds showed an effect of 50% or more. The effect is printed as a negative number. The list shows a part of the results.
# Biological target: human ether-à-go-go-related gene (hERG) potassium channel (human, UniProt Q12809)
# Assay: primary screen, population patch clamp on CHO cells stably expressing hERG
# Chain of human ether-à-go-go-related gene (hERG) potassium channel (Q12809 whole entry, looked up): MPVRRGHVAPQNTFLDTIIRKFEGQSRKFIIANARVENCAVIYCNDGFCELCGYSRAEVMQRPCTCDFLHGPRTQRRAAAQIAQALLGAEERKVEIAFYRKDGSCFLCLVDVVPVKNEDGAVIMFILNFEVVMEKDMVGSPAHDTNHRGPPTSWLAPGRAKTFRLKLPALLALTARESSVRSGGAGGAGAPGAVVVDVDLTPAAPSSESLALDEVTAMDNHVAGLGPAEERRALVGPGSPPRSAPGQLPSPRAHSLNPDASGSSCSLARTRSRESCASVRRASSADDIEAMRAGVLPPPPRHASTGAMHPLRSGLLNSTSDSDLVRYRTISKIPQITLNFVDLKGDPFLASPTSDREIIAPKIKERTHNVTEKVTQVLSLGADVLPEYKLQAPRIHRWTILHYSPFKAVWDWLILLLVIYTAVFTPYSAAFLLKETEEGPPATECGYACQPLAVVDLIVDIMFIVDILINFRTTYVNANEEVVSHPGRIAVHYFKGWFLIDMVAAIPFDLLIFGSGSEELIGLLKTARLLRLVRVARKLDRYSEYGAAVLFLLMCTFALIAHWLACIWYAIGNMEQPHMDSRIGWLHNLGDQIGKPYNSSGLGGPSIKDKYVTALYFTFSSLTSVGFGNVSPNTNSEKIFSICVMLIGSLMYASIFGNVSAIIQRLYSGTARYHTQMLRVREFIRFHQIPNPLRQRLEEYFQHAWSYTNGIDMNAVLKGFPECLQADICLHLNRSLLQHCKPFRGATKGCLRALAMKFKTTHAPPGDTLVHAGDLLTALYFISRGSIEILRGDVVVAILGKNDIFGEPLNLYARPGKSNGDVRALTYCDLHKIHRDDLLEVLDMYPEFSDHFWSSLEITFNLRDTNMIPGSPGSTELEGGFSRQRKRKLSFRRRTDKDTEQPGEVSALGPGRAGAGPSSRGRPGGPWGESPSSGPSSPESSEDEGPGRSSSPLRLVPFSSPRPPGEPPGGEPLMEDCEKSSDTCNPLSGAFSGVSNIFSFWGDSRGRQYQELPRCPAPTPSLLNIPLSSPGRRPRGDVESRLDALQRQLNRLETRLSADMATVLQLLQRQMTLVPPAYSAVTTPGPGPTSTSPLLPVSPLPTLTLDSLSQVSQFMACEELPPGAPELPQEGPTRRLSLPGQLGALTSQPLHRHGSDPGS
row,Structure (SMILES),"hERG current change (%, negative = inhibition) at 1uM [%]"
1,CCc1ccc(OCC(=O)NC(=S)Nc2cccc(CO)c2)c(Br)c1,7.5
2,CC(C)NC(=O)CN1CCN(c2ncccn2)CC1.O=C(O)C(=O)O,9.84
3,CC12CC3(C)CC(C)(C1)CC(NC(=O)N1CCCC1)(C2)C3,9.58
4,Cc1cc(N2CCN(C)CC2)n2cc(-c3ccc(F)cc3)nc2n1,-89.8
5,O=C(CCCN1C(=O)c2cccc3cccc(c23)C1=O)NCCN1CCOCC1,6.26
6,CC1CCCCC1NC(=O)c1cc2c(=O)n3ccccc3nc2n1C (stereo not drawn),7.84
7,Cc1cc(C)nc(-n2nc(C)c(Sc3ccc(F)cc3)c2N)n1,-11.3
8,CCOC(=O)c1oc2ccccc2c1COC(=O)CNC(=O)c1cc(OC)c(OC)c(OC)c1,1.17
9,O=C(CNC(=O)c1ccc(Br)cc1)NCC(=O)OCC(=O)c1ccc([N+](=O)[O-])cc1,12.9
10,O=C1C2CCCCN2C(=O)N1CCCN1CCN(c2ccc(F)cc2)CC1 (stereo not drawn),-3.12
11,CCOC(=O)CNc1nc(C(C)(C)C)nc2c1nnn2Cc1ccccc1,10
12,CCCc1nc(SC)[nH]c(=O)c1C,11.1
13,CCc1ccc(C(=O)NC(=S)Nc2ccc(N3CCOCC3)cc2)cc1,7.41
14,Nc1ncn(CC(=O)c2ccccc2)n1,2.92
15,CCOc1ccc(C(=O)NCCCn2ccnc2)cc1,-8.73
16,OCCC1CN(C/C=C/c2ccco2)CCN1Cc1ccccc1 (stereo not drawn),7.33
17,COc1ccc(-c2cc(C(=O)NC(Cc3cc4ccccc4[nH]3)C(=O)O)c(C)o2)cc1OC (stereo not drawn),18.3
18,COc1ccc(CCC(=O)OCC(=O)NCc2ccc3c(c2)OCO3)cc1,-5.62
19,O=C(NN1C(=O)c2ccccc2NC1c1ccccn1)c1ccccc1 (stereo not drawn),10.5
20,Cc1c(NC(=O)c2ccc(N(C)S(C)(=O)=O)cc2)c(=O)n(-c2ccccc2)n1C,13.8
21,O=C(N/N=C\c1ccc(Cl)cc1Cl)c1sccc1-n1cccc1,3.71
22,S=C(NCCCN1CCOCC1)Nc1cccc(Cl)c1,5.89
23,CCCNC(=O)c1cn(CC)c2cc(N3CCN(C)CC3)c(F)cc2c1=O,10.8

row,Structure (SMILES),"hERG current change (%, negative = inhibition) at 1uM [%]"
1,CC(=O)Nc1ccc(C(=O)N/N=C/c2ccccc2OC(=O)c2ccc(Cl)cc2)cc1,12.2
2,C[C@@H](CSc1ccccc1)CN1CC[C@H](C(C)(C)C)CCC1=O,9.29
3,Cc1ccc(C(=O)N2CC=C(c3ccccc3)CC2)o1,6.79
4,CC(C)Oc1cc(NC(=O)CS(=O)CC(=O)Nc2cccc(C(F)(F)F)c2)c(Cl)cc1Cl (stereo not drawn),11.6
5,CN(C1CCCCC1)S(=O)(=O)c1ccc(S(=O)(=O)N2CCN(C(=O)c3ccccc3F)CC2)cc1,14.3
6,CCn1c(SCC(=O)N/N=C\c2ccccc2OCC(=O)O)nnc1-c1ccc(Cl)cc1,9.15
7,Cc1ccc(S(=O)(=O)NCC(=O)OCC(=O)NC(=O)NC2CCCC2)cc1,12.8
8,O=C(NCc1ccco1)/C(=C/c1ccc(F)cc1)NC(=O)c1ccccc1,10.2
9,Cc1cc(OCC(=O)O/N=C(\N)c2ccccc2)ccc1Cl,6.38
10,Cn1nc(C(F)(F)F)c(/C=N/OC(=O)c2ccccc2)c1Cl,4.14
11,CN(C)S(=O)(=O)c1cc(NC(=O)CN2CCN(c3ccccc3F)CC2)ccc1Cl,10.6
12,N#Cc1cc(Br)ccc1N=C1CCCN1c1ccccc1,-4.78
13,CS(=O)(=O)c1cccc(-c2csc(N3CCC(C(N)=O)CC3)n2)c1.O=C(O)C(F)(F)F,-5.93
14,Cc1ccc(C(=O)NCc2ccccc2)cc1Br,7.97
15,Cc1ccc(CN2C(=O)CSc3ccc(C(=O)NC4CC4)cc32)cc1,9.07
16,CCOC(=O)c1ccc(NC(=S)N2CCC(O)CC2)cc1,7.52
17,c1ccc(C2N3CCCN23)cc1 (stereo not drawn),10.4
18,Fc1ccccc1CCNc1nnnn1-c1ccccc1,10.4
19,O=C(O)Cn1c(=O)c2c3c(sc2n(Cc2ccc(Cl)cc2Cl)c1=O)CCCC3,6.14
20,Cc1nc(C(=O)Nc2ccc(Cl)cc2)sc1C1(C)CC(c2cccc([N+](=O)[O-])c2)=NO1 (stereo not drawn),-13
21,Cc1ccccc1C(=O)Oc1ccc(Br)cc1C(=S)N1CCCC1,-2.6
22,Cl.OC(COc1c(F)cc(Br)cc1F)CN1CCOCC1 (stereo not drawn),6.67
23,C/C(=N\Nc1nc2ccccc2s1)c1cccs1,27.1

row,Structure (SMILES),"hERG current change (%, negative = inhibition) at 1uM [%]"
1,Cc1ccsc1CN(C)C(=O)CN1C(=O)NC2(CCCc3ccccc32)C1=O (stereo not drawn),-5.3
2,COc1ccc(-n2nc(C(=O)NCC(=O)N3CCC(C)CC3)c3ccccc3c2=O)c(OC)c1,11.4
3,COC(=O)CCNC(=O)CCc1ccc(S(=O)(=O)N2CCCCCC2)cc1,14.7
4,CC(NC(=O)c1cccc(Br)c1)c1ccccc1 (stereo not drawn),23.7
5,COC(=O)CCCC1=CC2=CC(=O)C(C)(OC(=O)c3ccc(Cl)nc3)C(=O)C2=CO1 (stereo not drawn),11.3
6,CCc1nnc(NC(=O)CSc2ncc(-c3ccccc3)n2C)s1,9.75
7,CSc1ccc(S(=O)(=O)NCCCOC(C)C)cc1,5.3
8,CCC(=O)c1c(NCCc2ccccc2)cc(C)oc1=O,18.5
9,Cc1cc(C)n(-c2ncc3c(n2)N(C)CCOC3=O)n1,11.2
10,Cc1cc(NC(=O)CN2CCN(c3ncccn3)CC2)no1.Cl,14.7
11,CC1=CC(C)C(C(=O)O)C(C(=O)O)C1 (stereo not drawn),19.7
12,O=S(=O)(c1ccccc1)n1cc(-c2ccccn2)c(N2CCOCC2)n1,4.59
13,CC1(C)Cc2c(cnn2-c2cccc(F)c2)C(NC(=O)CN2CCCC2=O)C1 (stereo not drawn),14.6
14,Cc1ccc(N/C=C2\C(=O)C3(C)CCC2C3(C)C)cc1C (stereo not drawn),14.4
15,NC(=O)c1ccccc1NC(=O)Nc1ccc(F)c(Cl)c1,8.45
16,Cc1ccc(S(=O)(=O)N2CCN(CC(=O)Nc3ccccc3Cl)CC2)cc1,8.51
17,CCCOc1ccc(-c2cnc(SCC(N)=O)nc2N)cc1,5.14
18,Cc1cccc(C(=O)N/N=C/c2ccncc2)c1,15.4
19,CCC(OC(=O)c1ccco1)C(=O)NCc1ccc(C)cc1 (stereo not drawn),12.9
20,O=c1[nH]c2ccccc2c2nc3ccccn3c12,-4.45
21,CCC(=O)Nc1cc(C(=O)O)ccc1Sc1ccc(C)cc1,9.26
22,CC(C)(C)OC(=O)NCCCCCNC(=O)c1[nH]cnc1C(=O)N[C@@H](CCCCNC(=O)OC(C)(C)C)C(=O)OC(C)(C)C,14.5
23,Cc1cccc2cc(C(c3nnnn3CC3CCCO3)N3CCc4ccccc4C3)c(=O)[nH]c12 (stereo not drawn),-9.37

row,Structure (SMILES),"hERG current change (%, negative = inhibition) at 1uM [%]"
1,CC1CCCCC1NC(=O)C(Cc1ccccc1)NS(=O)(=O)c1cccs1 (stereo not drawn),8.52
2,CCOC(=O)CSc1nc2ccc(N)cc2s1,-1.93
3,CC1CCCCN1C(=O)COC(=O)c1ccc2c(c1)C(=O)N(Cc1ccco1)C2=O (stereo not drawn),-39.9
4,CCOc1ccc(-n2c(O)c(C=NCCN(CC)CC)c(=O)[nH]c2=O)cc1,16.4
5,CCSc1nnc(NC(=O)C(CC)(C(F)(F)F)C(F)(F)F)s1,15
6,COc1ccc(-c2noc(CNC(=O)CCCN3C(=O)[C@H]4CC=CC[C@H]4C3=O)n2)cc1,11.7
7,O=C(CN1C(=O)c2cccnc2Oc2ccc(Cl)cc21)N1CCCC1,13.5
8,Cc1ccc2cc(C)c(N3CCC(C)CC3)nc2c1,9.3
9,COc1ccc(OCc2cc(C(=O)NC(C)Cn3cncn3)no2)c(Cl)c1 (stereo not drawn),11.4
10,CC(C)(C)C1N=C(c2ccc3ccccc3c2)OC1=O (stereo not drawn),13.9
11,COc1ccc(C)cc1Nc1cc(C)nc2ncnn12,10.3
12,CCOC(=O)C1CCN(C(=O)Nc2ccc3snnc3c2)CC1,3.17
13,COc1ccc2c(c1OC)C(=O)OC2Nn1cncn1 (stereo not drawn),6.85
14,Cc1cc2cc(CCNC(=O)CC(C)(C)C)c(=O)[nH]c2cc1C,13.3
15,CCN(CC)c1ccc(C(=O)NNC(=O)CCl)cc1.Cl,10.1
16,CCCn1nnnc1NC(=O)c1ccc(C)cc1Cl,8.63
17,c1ccc([C@H]2CN3C(=N2)Sc2ccccc23)cc1,11
18,COc1ccc(C2NC(C(=O)O)Cc3c2[nH]c2ccccc32)cc1CN1CCN(c2ccc(F)cc2)CC1 (stereo not drawn),2.03
19,COc1ccc(C(=O)COc2ccc(F)cc2)c(O)c1C,6.69
20,COc1ccc(CCC(=O)N2CCCSC2=Nc2ccc(C(C)=O)cc2)cc1,-0.0389
21,COc1ccc(CNC(=O)C2CCCN(c3nc4ccccc4o3)C2)c(OC)c1 (stereo not drawn),0.0528
